In all, about 18,000 sequences were measured (“TetR repression strength (sort-seq, GFP reporter)”: median about 0.23, highest 2% from about 0.68 on). The list shows a part of the results.

The target in this test is TetR (class B, Tn10) (UniProt P04483). Description: TetR repression strength (sort-seq, GFP reporter) (relative to tetO2 = 1); higher = stronger repression. Conditions: E. coli. In a few lines: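 Repression strength was calculated by subtracting the read-weighted mean bin from the top bin index plus one and dividing by the unaltered operator's value. The plasmid library was low-copy in E. coli SIG10-MAX, with eight randomized operator positions between a constitutive promoter and sfGFP and constitutive TetR. Cultures grew 5 h at 37 °C in LB containing 50 µg/mL chloramphenicol before 10^6 cells were sorted by FACS into 13 fluorescence bins, each sequenced on Illumina. Three independent transformations were averaged for members having ≥30 reads in all replicates and a CV ≤0.5.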
UniProt P04483, sequence (P04483 whole entry): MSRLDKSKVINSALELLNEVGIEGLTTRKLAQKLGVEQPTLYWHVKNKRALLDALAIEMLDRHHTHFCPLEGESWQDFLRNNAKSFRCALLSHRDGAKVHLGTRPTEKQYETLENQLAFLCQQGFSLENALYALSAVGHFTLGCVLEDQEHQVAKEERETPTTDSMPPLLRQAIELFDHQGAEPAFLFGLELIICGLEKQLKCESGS
The sequence TCCCCGCTAGTGCGGGAGA had a TetR repression strength of 0.343.
In the case of TCCCACGCAGTCATTGAGA, the TetR repression strength is 0.301.
Take TCCCGTACAGTTGGTGAGA: the TetR repression strength came to 0.233.
To TCCCGGTGAGTGAAGGAGA belongs 0.145; to TCCCGACAAGTAGATGAGA, 0.147; to TCCCCTTCAGTGCTAGAGA, 0.416.
The sequence TCCCGAGTAGTAGGGGAGA came in with a TetR repression strength of 0.0701.
To TCCCGGGGAGTAGAAGAGA belongs 0.0431; to TCCCCTTAAGTTATAGAGA, 0.263.
TCCCTTAAAGTTGGGGAGA: the TetR repression strength is 0.
In the case of TCCCTCCAAGTAGTGGAGA, the TetR repression strength is 0.154.
With TCCCGAAGAGTCGGGGAGA, the TetR repression strength is 0.212.
The sequence TCCCCATAAGTATGGGAGA came in with a TetR repression strength of 0.0642.
The result for TCCCTGAAAGTGGAGGAGA reads 0.309; that for TCCCGTTCAGTTCCTGAGA, 0.705; that for TCCCCGTTAGTTCTCGAGA, 0.167.
As for TCCCGTTGAGTGCGAGAGA, the TetR repression strength was 0.133.
Sequence TCCCGTCAAGTTGTCGAGA yielded a TetR repression strength of 0.135.
TCCCAGGGAGTAAGAGAGA: the TetR repression strength amounted to 0.256.
Regarding TCCCGTGTAGTGTACGAGA, the TetR repression strength was 0.213.
As for TCCCACCGAGTCAAGGAGA, the TetR repression strength came to 0.328.
Sequence TCCCAAGGAGTTGGTGAGA yielded a TetR repression strength of 0.17.
The sequence TCCCAAACAGTCTATGAGA gave a TetR repression strength of 0.433.
The sequence TCCCCGAGAGTTCGTGAGA gave a TetR repression strength of 0.111.
For the sequence TCCCGTAGAGTGGGGGAGA, the TetR repression strength came to 0.142.
As for TCCCTGTTAGTTATAGAGA, the TetR repression strength came out at 0.494.
TCCCATAGAGTCTACGAGA showed a TetR repression strength of 0.202.
TCCCACGGAGTCCTCGAGA returned a TetR repression strength of 0.535.
In turn, TCCCTGCTAGTATGTGAGA displayed a TetR repression strength of 0.461.
In turn, TCCCGCGGAGTGAAGGAGA registered a TetR repression strength of 0.174.
Turning to TCCCGTTCAGTAGTCGAGA, the TetR repression strength was 0.615.
As for TCCCTCTGAGTCGAAGAGA, the TetR repression strength was 0.0537.
In the case of TCCCGTTAAGTAAAAGAGA, the TetR repression strength was 0.276.
Consider TCCCTGGGAGTGGGAGAGA, for which the TetR repression strength came out at 0.157.
With TCCCTACTAGTCCAAGAGA, the TetR repression strength amounted to 0.385.
To TCCCCCCTAGTCGGGGAGA belongs 0.59; to TCCCCGAGAGTTTGTGAGA, 0.111.
The result for TCCCCCTCAGTTTTTGAGA reads 0.357.
Consider TCCCCCTGAGTGGAGGAGA, for which the TetR repression strength is 0.227.
For the sequence TCCCGATCAGTACCAGAGA, the TetR repression strength stood at 0.238.
The sequence TCCCTGACAGTAATTGAGA had a TetR repression strength of 0.0305.
The result for TCCCGTTCAGTAAGTGAGA reads 0.444; that for TCCCAAACAGTTCGTGAGA, 0.14.
Regarding TCCCAACTAGTGTGAGAGA, the TetR repression strength was found to be 0.132.
TCCCTAGTAGTGCCAGAGA gave a TetR repression strength of 0.162.
TCCCCGCGAGTTGAAGAGA showed a TetR repression strength of 0.335.
The sequence TCCCTAGAAGTATTAGAGA had a TetR repression strength of 0.
To TCCCCAGTAGTGGCGGAGA belongs 0.333; to TCCCGGGAAGTCTCAGAGA, 0.187; to TCCCTCCTAGTCCTTGAGA, 0.402.
Sequence TCCCTCGTAGTAGGGGAGA displayed a TetR repression strength of 0.151.
Sequence TCCCTCAGAGTTCCAGAGA returned a TetR repression strength of 0.313.
In the case of TCCCTGTCAGTCGGTGAGA, the TetR repression strength amounted to 0.378.
TCCCCGTCAGTATTTGAGA: the TetR repression strength worked out at 0.351.
As for TCCCACACAGTGCTTGAGA, the TetR repression strength was found to be 0.187.
TCCCTAGTAGTCTTCGAGA gave a TetR repression strength of 0.272.
Turning to TCCCTGCAAGTCTAGGAGA, the TetR repression strength is 0.171.
Take TCCCAAGTAGTATCCGAGA: the TetR repression strength turned out to be 0.252.
TCCCATACAGTACAAGAGA registered a TetR repression strength of 0.288.
Consider TCCCAGGAAGTCCTTGAGA, for which the TetR repression strength is 0.24.
TCCCCAACAGTTTGAGAGA had a TetR repression strength of 0.415.
TCCCACATAGTCGCCGAGA displayed a TetR repression strength of 0.421.
Regarding TCCCTTCGAGTTTGTGAGA, the TetR repression strength is 0.293.
For the sequence TCCCTTAGAGTGTGGGAGA, the TetR repression strength turned out to be 0.0893.
Consider TCCCTTTTAGTGCACGAGA, for which the TetR repression strength was 0.567.
Take TCCCGTCGAGTTATTGAGA: the TetR repression strength came to 0.231.
The result for TCCCCGCGAGTCGGCGAGA reads 0.126.
Turning to TCCCTGATAGTTAAGGAGA, the TetR repression strength turned out to be 0.142.
The result for TCCCAGCGAGTAGATGAGA reads 0.191; that for TCCCAGCTAGTGTAAGAGA, 0.197; that for TCCCTACTAGTGCCGGAGA, 0.263.
As to TCCCCTCAAGTCGAGGAGA, the TetR repression strength was found to be 0.125.
With TCCCTATGAGTGCTAGAGA, the TetR repression strength was 0.452.
Sequence TCCCAGGGAGTGAAGGAGA registered a TetR repression strength of 0.142.
Regarding TCCCACACAGTATAGGAGA, the TetR repression strength amounted to 0.311.
As for TCCCAGAGAGTTACGGAGA, the TetR repression strength came to 0.252.
The sequence TCCCGTCTAGTGGGTGAGA had a TetR repression strength of 0.111.
TCCCTATCAGTAACAGAGA showed a TetR repression strength of 0.539.
The result for TCCCACTTAGTGGAGGAGA reads 0.174; that for TCCCTGAAAGTATACGAGA, 0.205; that for TCCCGGTGAGTATTTGAGA, 0.172.
Regarding TCCCGGCGAGTTGTGGAGA, the TetR repression strength was found to be 0.229.
Consider TCCCGCTGAGTTTTTGAGA, for which the TetR repression strength stood at 0.307.
The result for TCCCGATAAGTCGGGGAGA reads 0.172.
The sequence TCCCGTGTAGTCAAGGAGA gave a TetR repression strength of 0.579.
To TCCCGGCGAGTAAGAGAGA belongs 0.232; to TCCCGTGGAGTCTGTGAGA, 0.153.
Consider TCCCCGGCAGTTTACGAGA, for which the TetR repression strength came out at 0.523.
To TCCCGGTCAGTGCGGGAGA belongs 0.289.
In turn, TCCCTCTAAGTGTTAGAGA yielded a TetR repression strength of 0.282.
TCCCGTGCAGTACATGAGA gave a TetR repression strength of 0.14.
Regarding TCCCGAACAGTATGTGAGA, the TetR repression strength stood at 0.0646.
In turn, TCCCAGGCAGTGGTTGAGA came in with a TetR repression strength of 0.238.
Sequence TCCCCTCGAGTGGGTGAGA gave a TetR repression strength of 0.329.
The result for TCCCAAATAGTTGGGGAGA reads 0.0447; that for TCCCTAAGAGTGGTTGAGA, 0.508; that for TCCCATTTAGTTTAGGAGA, 0.244.
In the case of TCCCTCGGAGTTGGTGAGA, the TetR repression strength stood at 0.237.
Turning to TCCCGATTAGTGGGAGAGA, the TetR repression strength stood at 0.25.
To TCCCACCAAGTGAGAGAGA belongs 0.233; to TCCCGTCCAGTCTGCGAGA, 0.337; to TCCCGAACAGTGTAAGAGA, 0.292.

Values taken from a collection of fitness landscapes (doi:10.1038/s41467-024-54723-y).
